Binding signal (log2 normalized intensity) data for 73 sequences are collected here from publication PMC10726135.

The other results are listed elsewhere or left out. At the low end of the ranking the order means little. Measured with an extract: partners may take part in the binding.

This assay addresses T1, HNF4alpha2 (COS-7 nuclear extract) (UniProt P41235).
T1 sequence: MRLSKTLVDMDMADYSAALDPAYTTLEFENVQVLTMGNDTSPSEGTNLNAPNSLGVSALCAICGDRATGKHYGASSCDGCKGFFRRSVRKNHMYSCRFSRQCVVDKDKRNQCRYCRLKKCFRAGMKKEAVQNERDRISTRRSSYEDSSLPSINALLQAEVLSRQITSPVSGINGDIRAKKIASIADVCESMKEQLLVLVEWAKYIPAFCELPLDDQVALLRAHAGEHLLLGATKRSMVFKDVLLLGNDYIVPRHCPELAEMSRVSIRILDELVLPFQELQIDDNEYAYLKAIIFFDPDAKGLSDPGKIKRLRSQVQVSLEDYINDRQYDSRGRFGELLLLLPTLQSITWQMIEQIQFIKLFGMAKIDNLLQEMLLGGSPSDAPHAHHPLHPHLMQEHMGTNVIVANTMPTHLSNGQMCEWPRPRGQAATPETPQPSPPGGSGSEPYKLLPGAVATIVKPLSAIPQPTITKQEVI
As to the kind of experiment: protein-binding microarray. Conditions: COS-7 nuclear extract on double-stranded Agilent 4x180k PBM; binding buffer, salt, pH and temperature not given; high values mean tight binding; double strand, one strand shown; sequences stand for … in …GCCTAGGGAGATTAGAGTATCGGTCGA
On to GGTTAGAGGATGACCTTCCCTGCAGAAAAG, for which the binding signal (log2 normalized intensity) was -0.738.

As to CTTACAGACTCCTGCATATCCTGACTGCTG, the binding signal (log2 normalized intensity) was -1.21.

For ACAGAGCAAGTAGAGCTGCTTACATTTTGC, the binding signal (log2 normalized intensity) was -1.08.

For the sequence AAACAGATAACTGGGGGCAAAGGTTCACTT, the binding signal (log2 normalized intensity) is 4.93.

Turning to CATTGTAGCCTCAAATTCCTGGGCTCAAAC, the binding signal (log2 normalized intensity) is -1.27.

In the case of TGTTTAGGAGCCAATTATGCTGGCAGTAGG, the binding signal (log2 normalized intensity) came to 0.371.

For the sequence GATTTAATCCTCAAAAATGCTTTACAAGGT, the binding signal (log2 normalized intensity) is -1.02.

CTGTTACCACACCACAGCGGGGCCTCTGTG: the binding signal (log2 normalized intensity) is -1.17.

CTGCTTATCTCAACTGATTTACCTCTGACC: the binding signal (log2 normalized intensity) stood at 2.39.

Regarding TATGGTCTCTTCCAAAGCTGAAATGCCTCA, the binding signal (log2 normalized intensity) was -1.09.

As to GTGGAATCCTGCTAGCAGCTCTCTCCCTTA, the binding signal (log2 normalized intensity) is -1.19.

Turning to CTGCCCTTTGCCCTTTGGGAAGGGGCAAAA, the binding signal (log2 normalized intensity) worked out at 4.62.

CCCCCAGGAGCGAGTCAAGGGTCAATCCTC: the binding signal (log2 normalized intensity) came to 3.43.

For the sequence CAACCCTGGCATAGCATGCCACGATGATTA, the binding signal (log2 normalized intensity) was -1.2.

On to AGCCTTATTCTTTGATCTCTTATCACCCTG, for which the binding signal (log2 normalized intensity) was 1.86.

As to TCGCTCCCCTCCTGTCAGTTTATTTACTGT, the binding signal (log2 normalized intensity) is 1.71.

Consider TCCCCCAAACCAAAGAGAAATGGTGTGGAC, for which the binding signal (log2 normalized intensity) worked out at 2.14.

As to CAGATGCCTGCACACGGTGTCCAGATTCCA, the binding signal (log2 normalized intensity) is -0.998.

For AGGTGTGCTGAGGAAACTGACAGGAAACTG, the binding signal (log2 normalized intensity) was -1.17.

With ACTTCGCTGGAGGTGTTAAAGTGCCATTGA, the binding signal (log2 normalized intensity) is 1.22.

Consider GAGGAGACAAAGGCCGCGCCCGCCCGCGCC, for which the binding signal (log2 normalized intensity) was -1.04.

In the case of AAAAACCTCTCTCCAGGTACAAGGATAAAT, the binding signal (log2 normalized intensity) was -0.867.

As for CACATTCCAGGAATATTCAGATATTCCTGG, the binding signal (log2 normalized intensity) is -1.05.

Regarding TGCAGGGAGGACAGACTCTGGGAGATAAAG, the binding signal (log2 normalized intensity) was -1.04.

Turning to CTTATCAGGCTCATTCTAACCCAAATGCAA, the binding signal (log2 normalized intensity) stood at 2.07.

Turning to TTCCAGAGCCTTCAAAGGAAAGCAGGTGTT, the binding signal (log2 normalized intensity) was determined as 0.55.

With ACTGTCAGCAGGGGGATCCACTTCCTATCC, the binding signal (log2 normalized intensity) is -1.01.

Consider TCATGGAGGACTTTGGCCTTTTGTGAGATA, for which the binding signal (log2 normalized intensity) amounted to 5.04.

With CATCCCTCTCTTGCTGGGCCCCCAGATTGA, the binding signal (log2 normalized intensity) was 2.42.

Consider TCGAGATGGCTAATCAGTATTGAGGCCGGA, for which the binding signal (log2 normalized intensity) was -0.426.

In the case of TTTGCAAGGTTTGTTCTTATCATGCTGTCT, the binding signal (log2 normalized intensity) is 1.98.

On to CACCCTTCCCTGAGTTTCCATTAACTGAAC, for which the binding signal (log2 normalized intensity) was 0.899.

CAGAATGACTTTCAGAAAGTCCTTGGAAAC: the binding signal (log2 normalized intensity) amounted to 0.96.

In the case of CTCCGTCGTGGCCTGGCGTGGATTCCGAGC, the binding signal (log2 normalized intensity) is -0.819.

Regarding TTTGCCATAGATCCCACCATTCCCAGTTGT, the binding signal (log2 normalized intensity) turned out to be 2.1.

Turning to CTTTAACAAGGTGTGTTTGAGCAGGGGTGA, the binding signal (log2 normalized intensity) stood at 1.27.

With ATGCATTTCCCTAGATCACTGTGTATTTGT, the binding signal (log2 normalized intensity) is 2.32.

For the sequence TCCAGCCTGGGTGACAGAGTGAGACTCTAT, the binding signal (log2 normalized intensity) is -0.711.

With TACTGACCTTTCTCCCTTTTCACAGGAGAG, the binding signal (log2 normalized intensity) was 1.49.

Turning to GGTAGTCGCCCTCCGTCGTGGCCTGGCGTG, the binding signal (log2 normalized intensity) was -1.04.

As to AAATTCTGCGGCGGAAGGACACAGATTCAG, the binding signal (log2 normalized intensity) is -1.18.

In the case of ATTCATTCAGCAAATATTGAATGTGTTACA, the binding signal (log2 normalized intensity) was determined as 1.29.

As for CCCCTTCCCACCTGCTGTCCAACCTCCTCC, the binding signal (log2 normalized intensity) turned out to be 3.53.

Take CTCATTACTAATCCTCTTCTGTCCTCCTGT: the binding signal (log2 normalized intensity) worked out at 1.56.

Consider CATCTCAGCTGTTATCTCTTTTGTGATAGA, for which the binding signal (log2 normalized intensity) was 1.3.

Take GGCTCCGCTGCTGCAGAGCAAAGCTGATAA: the binding signal (log2 normalized intensity) is -1.2.

Consider GGGCGGGGGTGACCAGATTAATTACCCACA, for which the binding signal (log2 normalized intensity) was -1.15.

With AGACATTCCAAACATGTTTCGAACGGTTGC, the binding signal (log2 normalized intensity) was found to be 0.627.

Turning to GCCAGACTGGTTTTTCTTGGGTGTATGGGT, the binding signal (log2 normalized intensity) worked out at 2.02.

For the sequence TTGCTATGTCCCTGATGACATAATTTACGG, the binding signal (log2 normalized intensity) amounted to 0.169.

With CCAGATAAGAGCTATCAATGACCCATGTTT, the binding signal (log2 normalized intensity) came out at 1.28.

As to CAGGAGCCCTAGGAATCCTGACCAGGGGCC, the binding signal (log2 normalized intensity) is -1.16.

With AAATACTTGTTATATTGGATAGTGCCTTTT, the binding signal (log2 normalized intensity) was determined as 1.6.

With TTCCCGGCAGCCCGCGCGTGGCCCAGCATG, the binding signal (log2 normalized intensity) is -1.13.

For CAGATCCCAAAGGCATGAATAGAATGCAAC, the binding signal (log2 normalized intensity) is -1.04.

Turning to CAATTTCTTAGTAAACACTGCCACCGTGTG, the binding signal (log2 normalized intensity) is -1.16.

Turning to TCTACCATAGACCCTGTTGGTTTCTGGGAT, the binding signal (log2 normalized intensity) was 1.07.

As for ACCTTTGGGACATTCCCCAGGCTGCCCTGA, the binding signal (log2 normalized intensity) worked out at 1.15.

GCAACCCCGTTTACTTTTGTACACACAGCA: the binding signal (log2 normalized intensity) is -0.303.

Consider TCTGACCCTTGACCAAGCAGCTGTTTGACC, for which the binding signal (log2 normalized intensity) stood at 3.24.

As to GGAGTTAACTAACAAAAGCAGAGGAGTGGC, the binding signal (log2 normalized intensity) was -1.21.

Regarding CCCAGTACAAAGTTCACTTTCTTGTTTACT, the binding signal (log2 normalized intensity) was 4.59.

In the case of TCCCTGACAGACCCCTCCTACGTACCCTAG, the binding signal (log2 normalized intensity) amounted to 2.21.

Consider GGTTACAGGGTTCAACACGTGGTATTTTTC, for which the binding signal (log2 normalized intensity) stood at 1.91.

On to TTTAGAGCACAGTAATGTGATTTAATTCTG, for which the binding signal (log2 normalized intensity) was determined as 0.168.

As to CTCCAGGACCTTGCCCTTTAGTTATCTCTT, the binding signal (log2 normalized intensity) stood at 2.63.

In the case of TCCAAAGGCCATCTGCTGGAGAATCCTCTC, the binding signal (log2 normalized intensity) was -1.23.

As to GTACCTCCCGAAAGTGACCCTCTGCCCCCT, the binding signal (log2 normalized intensity) was determined as 6.3.

For the sequence CACTGCTCTAGGCATTGGAGATATGATAGC, the binding signal (log2 normalized intensity) was -1.03.

In the case of CCAGTTAGACATAGGTTATAAACTTGTTTG, the binding signal (log2 normalized intensity) amounted to 1.16.

Take ATGACTACTTTAAAAGAAGATGCCTTTCAA: the binding signal (log2 normalized intensity) is -1.06.

In the case of AGGAGATAATGGGTGTAAGATACCTATGCC, the binding signal (log2 normalized intensity) is -1.2.

On to CACTACAAGCTTTGAAGGCAAGATAAAATA, for which the binding signal (log2 normalized intensity) was -1.17.
